# Sequences with one replicate were seen in a single cluster, so their values are uncertain.
# Tested on: ATP
# Assay: switch fluorescence ratio, 500 uM ATP over buffer (Cy3 cluster intensity, sum of 5 cycles each) (fold (ratio)); higher = stronger signal-on switching upon ATP binding; sequences stand for … in TCGTCGGCAGCGTCAGATGTGTATAAGAGACAGTTTTTTTTTTTTTTTTTTTTTTTTT…TC
# Conditions: aptamer strand: ATP DNA aptamer (quencher-CACCTGGGGGAGTATTGCGGAGGAAGG + anchor), 100 nM annealed; ATP concentration: 500 uM; one replicate
# In short: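 Clusters with intensities outside 100-1000 RFU were excluded. The remaining Cy3-labelled switching-strand clusters on a modified Illumina MiSeq flow-cell had been annealed to 100 nM quencher-labelled ATP aptamer and imaged in selection buffer, then after 15 min with 500 uM ATP at 22 °C, for five cycles separated by NaOH stripping and re-annealing. The fluorescence ratio, averaged per switch-domain sequence, is each cluster's summed target-cycle Cy3 intensity over its summed buffer-cycle Cy3 intensity.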
# 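Also: ATP exposure 15 min at 22 °C before imaging.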
row,Sequence,switch fluorescence ratio
1,CCAGGCACAG,1.05
2,CCAGGCCAGT,1.04
3,CCAGGGACCA,0.998
4,CCAGGGAGTC,1.03
5,CCAGGGCAC,1.01
6,CCAGGGGGC,1.06
7,CCAGGTGATC,3.88
8,CCAGGTTCAC,0.99
9,CCAGTAAGCG,1.02
10,CCAGTAATAA,2
11,CCAGTCCATA,0.997
12,CCAGTCCTTC,1.05
13,CCAGTCTAGT,1.03
14,CCAGTCTATA,0.998
15,CCAGTGCGTT,1.02
16,CCAGTTGCTC,1.04
17,CCATAATTGG,1.06
18,CCATACTGCC,1.4
19,CCATAGGCAA,4.65
20,CCATAGGGTT,0.994
21,CCATATCCAC,1.03
22,CCATATGTGT,0.982
23,CCATATTGTT,1.04
24,CCATATTTGA,1.03
25,CCATCAACGG,1
26,CCATCATGTC,1.09

row,Sequence,switch fluorescence ratio
1,CCATCCATGA,1.04
2,CCATCCTACA,1.08
3,CCATCTGTCG,1.03
4,CCATGAATTG,0.939
5,CCATGACCCT,1.04
6,CCATGACCTT,1.12
7,CCATGAGCTC,1.07
8,CCATGAGT,1.04
9,CCATGATCAT,0.988
10,CCATGCATTC,2.94
11,CCATGGACTG,1.02
12,CCATGGCGTA,1.05
13,CCATGTGAGA,1
14,CCATTAAGTA,1.06
15,CCATTACCTT,1.07
16,CCATTACGTA,1.16
17,CCATTATATT,1.01
18,CCATTCACAG,1.02
19,CCATTCCTG,1.06
20,CCATTGAAA,1.01
21,CCATTGTGCC,0.948
22,CCATTTCATG,0.959
23,CCATTTGGTC,0.985
24,CCATTTTCTT,0.964
25,CCCAAATCGG,0.994
26,CCCAACGGCA,1.07

row,Sequence,switch fluorescence ratio
1,CCCAACGGGA,1.02
2,CCCAAGTTAT,1.03
3,CCCAATGTTT,1.16
4,CCCACCCCCA,1.04
5,CCCACGGGGA,1.03
6,CCCAGAACGA,1.12
7,CCCAGAGCAG,2.64
8,CCCAGCCACC,1.26
9,CCCAGGAGCA,1.61
10,CCCAGTTCCG,1.01
11,CCCATCAGTG,3.09
12,CCCATTGCAA,1.88
13,CCCCAAAGTG,4.26
14,CCCCAAGGAT,1.19
15,CCCCACCCGG,1.18
16,CCCCACTACA,1.1
17,CCCCACTATC,1.77
18,CCCCAGGTTT,4.62
19,CCCCAGTTTT,1.17
20,CCCCATGTAT,1.05
21,CCCCATTGTG,2.89
22,CCCCCCACGT,1.61
23,CCCCCCTGAC,1.96
24,CCCCCTGCTT,1.43
25,CCCCGATCT,1.09
26,CCCCGGGTAG,3.53

row,Sequence,switch fluorescence ratio
1,CCCCGTAAGG,1.1
2,CCCCGTCAAA,6.27
3,CCCCGTTCGT,1.09
4,CCCCTAAACA,0.947
5,CCCCTACGCG,1.33
6,CCCCTCCTCT,1.3
7,CCCCTCGGTC,1.16
8,CCCCTCTAGC,1.23
9,CCCCTGTGGT,1.19
10,CCCCTTTTT,0.99
11,CCCGATTAAT,1.02
12,CCCGATTACC,1.21
13,CCCGCCGGGG,1.99
14,CCCGCCGT,1.09
15,CCCGCTAGTT,1.31
16,CCCGCTCGGT,1.05
17,CCCGGCATCC,1.6
18,CCCGGCTGCC,1.04
19,CCCGGTAGGA,1.01
20,CCCGGTGCTT,2.07
21,CCCGTAGTAA,1.11
22,CCCGTCCATT,1.02
23,CCCGTCGTCG,0.999
24,CCCGTCTCCC,1.57
25,CCCGTGTTTG,1.03
26,CCCGTTACGA,1.41

row,Sequence,switch fluorescence ratio
1,CCCTAACACA,1.03
2,CCCTAGAATG,1.03
3,CCCTAGCCAC,3.03
4,CCCTATTCGC,1.04
5,CCCTCCATAA,2.12
6,CCCTGCAAAG,5.79
7,CCCTGTAGTG,1.26
8,CCCTTAAACG,1.09
9,CCCTTGCGCT,1.12
10,CCCTTGCTTC,1.08
11,CCGAAAAAGG,1.05
12,CCGAAAGGCT,0.967
13,CCGAAAGTGA,2.37
14,CCGAACACGT,1.07
15,CCGAAGAAGA,2.49
16,CCGAAGGCGC,0.992
17,CCGAATCTA,1.11
18,CCGAATTTAG,1.06
19,CCGACCGATG,2.24
20,CCGACGAGAG,1.51
21,CCGAGAGCGT,2.77
22,CCGAGCACGA,4.65
23,CCGAGCGTCG,1.31
24,CCGAGGATAG,1.49
25,CCGAGGGA,1.17
26,CCGAGTACGG,1.1

row,Sequence,switch fluorescence ratio
1,CCGATAGCAC,2.71
2,CCGATAGGA,0.984
3,CCGATAGTGG,1.04
4,CCGATCGATG,1.6
5,CCGATTGAAG,1.09
6,CCGATTTCGG,1.01
7,CCGCAAGGGA,2.01
8,CCGCACGGCC,4.46
9,CCGCCAGTGT,4.3
10,CCGCCCCTTC,2.03
11,CCGCGACCT,3.02
12,CCGCGATGGC,2.23
13,CCGCGGCCAT,1.56
14,CCGCGGGTGT,2.1
15,CCGCGTAGGG,1.14
16,CCGCGTATTG,1.64
17,CCGCGTCATA,2.92
18,CCGCTCCA,1.8
19,CCGCTGGTCG,1.03
20,CCGCTGTAGT,1.97
21,CCGCTTAACG,2.23
22,CCGGAAGGTT,1.05
23,CCGGACGAC,4.12
